PubChem BioAssay AID485294 (National Center for Advancing Translational Sciences (NCATS), 2010)
The campaign covered roughly 370,000 compounds. About 150 (0.041%) were called active. Inconclusive means that the source gave no clear call. Such entries were picked first, then a sample of the others. The call rests on the fitted dose curve; in most records, active means well fitted inhibition curve with a large enough effect; inconclusive means small, poorly fitted or top-dose-only effect; inactive means flat fitted curve, though single readings scatter. Potencies of inconclusive entries are left out as doubtful fits.
Further: nearly all actives have a fitted effect of over 25% in size.
Potency means the concentration at half of the fitted maximal effect; tags describe the fitted curve by direction and shape.

These compounds were tested against Beta-lactamase (Escherichia coli (strain K12)) (UniProt P00811) (assay: qHTS Inhibitors of AmpC Beta-Lactamase (assay with detergent)). Conditions: AmpC hydrolysis of nitrocefin, absorbance 480 nm, 0.01% Triton; series mostly up to 114 µM.
Chain of UniProt P00811 (P00811 whole entry, looked up): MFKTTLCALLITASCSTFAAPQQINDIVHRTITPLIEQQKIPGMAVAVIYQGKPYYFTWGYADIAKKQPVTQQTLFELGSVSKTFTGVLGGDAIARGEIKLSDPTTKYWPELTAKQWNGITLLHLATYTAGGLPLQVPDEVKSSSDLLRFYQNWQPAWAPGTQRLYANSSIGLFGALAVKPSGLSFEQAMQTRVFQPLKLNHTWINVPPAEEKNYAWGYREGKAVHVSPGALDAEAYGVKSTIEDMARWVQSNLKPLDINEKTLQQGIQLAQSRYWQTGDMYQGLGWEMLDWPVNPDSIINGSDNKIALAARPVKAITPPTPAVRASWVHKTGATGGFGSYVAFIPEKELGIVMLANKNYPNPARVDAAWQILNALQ
How it was run: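 AmpC (5.3 nM in the dispensed reagent) in 20 mM phosphate pH 7.0 with 0.01% (detergent screen) or 0.0001% Triton X-100 was preincubated with compounds for 15 min at room temperature. Nitrocefin was then added from an 800 uM solution, and hydrolysis was followed at 480 nm.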
With `Cc1ccc(C(=O)Nc2cc(-c3ccn[nH]3)c(C)n(N)c2=O)cc1` the Potency was inconclusive [inhibitor, partial curve, poor fit].
`COc1cc(NC(=O)c2ccc(C)cc2)c(OC)cc1NC(=O)CN1CCOCC1` was tested, and the Potency was inconclusive [inhibitor, full curve, poor fit].
`COCCCNC(=O)c1ccc2c(c1)ncn2-c1ccc(C)cc1C` was tested, and the Potency was inconclusive [inhibitor, single point].
`Cc1cc2ccccc2n1CCNC(=O)c1ccc(S(=O)(=O)N2CCOCC2)cc1` was tested, and the Potency was inconclusive [inhibitor, full curve, poor fit].
For `CCc1c(C)nc(N)c(C#N)c1-c1ccccc1`, the Potency was inconclusive [inhibitor, single point].
`Cc1ccc(-n2nc3c(c2NC(=O)C(C)C)CS(=O)(=O)C3)c(C)c1` was tested, and the Potency was inconclusive [inhibitor, single point].
For `CC(C)(C)n1nnnc1C(c1cccs1)N(Cc1ccccc1)Cc1cccnc1` (configuration not stated), the Potency was inconclusive [inhibitor, partial curve].
For `O=C(Cc1ccc(Cl)cc1)NCCN1CCCC1`, the Potency was inconclusive [inhibitor, full curve, poor fit].
For `O=C(OCCN1C(=O)c2ccccc2C1=O)c1ccc(S(=O)(=O)N2CCCCCC2)cc1`, the Potency was “inactive”.
With `CCOc1ccc(-c2noc(-c3cccnc3)n2)cc1OC` the Potency was inconclusive [inhibitor, single point].
With `Cc1nnc(SC/C=C/c2ccccc2)n(N)c1=O` the Potency was inconclusive [inhibitor, single point].
For `CN(CC(=O)Nc1cccc(F)c1)CC(=O)Nc1cccc(S(=O)(=O)N2CCCCC2)c1`, the Potency was inconclusive [inhibitor, single point].
For `COc1ccccc1C(=O)NC(=O)COC(=O)c1ccc([N+](=O)[O-])cc1`, the Potency was inconclusive [inhibitor, full curve].
In the case of `CC1(C)CC(=O)C2=C(C1)Nc1ccccc1NC2c1nc2ccccc2[nH]1` (configuration not stated), the Potency is reported as inconclusive [inhibitor, single point].
In the case of `O=C1c2ccccc2C(=O)N1CCCCN(C(=O)c1cc([N+](=O)[O-])ccc1Cl)c1ccc(Cl)cc1`, the Potency is reported as inconclusive [inhibitor, full curve].
For `COc1ccc(NC(=O)c2ccco2)cc1NC(=O)c1ccco1`, the Potency was inconclusive [inhibitor, full curve].
`Cc1nnc(C)n1/N=C/c1cc(Br)cc(Br)c1O` was tested, and the Potency was inconclusive [inhibitor, full curve, poor fit].
